# Test results from PubChem BioAssay AID1345083 (National Center for Advancing Translational Sciences (NCATS), 2018).
# The whole screen tested about 94,000 compounds, of which about 6,200 (6.6%) were called active. Inconclusive means that the source gave no clear call. Such entries were picked first, then a sample of the others. Calls follow the shape of the dose curve; as a rule, active = well fitted inhibition curve with a large enough effect; inconclusive = small, poorly fitted or top-dose-only effect; inactive = flat fitted curve, though single readings scatter. A potency beside an inconclusive call is a rough fit, not a confirmed value.
# Experiment: Cytotoxic Profiling in HEK 293 Cell Line of Diverse Libraries Using Quantitative High-Throughput Screening; also: nearly all actives have a fitted effect of over 60% in size
# Conditions: HEK 293 viability, ATP luminescence (CellTiter-Glo), 48-72 h; series mostly up to 115 µM
# Outline: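 250 HEK 293 cells/well; compound by pintool; incubated 48 or 72 hr at 37 degree Celsius; CellTiter-Glo added, 10 min RT, luminescence imaged.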
# Potency is read from the fitted curve at half-maximal effect; tags tell the direction and shape of the fitted curve.
row,SMILES,Potency
1,CNC(=O)c1cc(-c2ccccc2)cc2c1OCCN2Cc1cccnc1,"inconclusive: 112 µM [inhibitor, single point]"
2,COC(=O)[C@@H]1Cc2c([nH]c3ccccc23)[C@@H]2C[C@@H](NCCNC(C)=O)C[C@@H](c3ccc(F)c(F)c3)N12,active: 31.6 µM
3,COc1ccc(-c2cc(N3CCC(NC(=O)c4cc(OC)c(OC)c(OC)c4)C3)n[nH]2)cc1 (stereo not drawn),"inconclusive: 89.1 µM [inhibitor, single point]"
4,Cc1noc(C)c1-c1cc2c(cc(C)n2C)c(-c2cccc(CO)c2)n1,"inconclusive: 79.4 µM [inhibitor, partial curve, poor fit]"
5,CCN(C)C(=O)CC1=CSC2=NC(C)=C(C(=O)OC(C)(C)C)C(c3ccc(Cl)cc3)N12 (stereo not drawn),"inconclusive: 50.1 µM [inhibitor, partial curve, poor fit]"
6,CN(CCc1ccccc1)Cc1cnc(S(C)(=O)=O)n1Cc1ccccc1F,"inconclusive: 50.1 µM [inhibitor, partial curve, poor fit]"
7,O=C(NCc1ccccc1Cl)c1ccc2nnc(Cc3ccc(Cl)cc3)n2c1,"inconclusive: 50.1 µM [inhibitor, partial curve, poor fit]"
8,Cc1cc(C(=O)NCC(F)(F)F)c2c(C3CCNCC3)noc2n1,inactive
9,Cn1ncc2c(C(=O)NCc3ccc(F)cc3)cc(-c3cccnc3)nc21,"inconclusive: 39.8 µM [inhibitor, full curve]"
10,CC1CCN(C(=O)c2ccccc2OCC2CCCN(C(=O)C3CC3)C2)CC1 (stereo not drawn),"inconclusive: 10 µM [inhibitor, full curve]"
11,COc1ccc(Cn2c(=O)c(C(=O)NCc3cccc(C(F)(F)F)c3)nc3cccnc32)cc1,"inconclusive: 89.1 µM [inhibitor, partial curve, poor fit]"
12,Cc1nn(C)c2nc(NCCC(=O)N3CCC(C)CC3)sc12,"inconclusive: 31.6 µM [inhibitor, partial curve]"
13,COc1ccc(C(=O)N2CCC3(CC2)NC(=O)N(c2cccc(F)c2)N3)cc1,"inconclusive: 10 µM [inhibitor, full curve]"
14,COc1ccccc1-c1nnc2ccc(C(=O)NC3CCCCC3)cn12,inactive
15,COc1cccc(-c2cc(C3CCN(C(=O)Nc4ccc5c(c4)OCCO5)CC3)[nH]n2)c1,"inconclusive: 50.1 µM [inhibitor, partial curve, poor fit]"
16,COCCN1CCC2(CCC1=O)CCN(C(=O)Nc1cccc(Br)c1)CC2,inactive
17,CNC(=O)CCn1ncc2cc(OCc3ccccc3-c3cccc(NC(C)=O)c3)ccc21,"inconclusive: 50.1 µM [inhibitor, partial curve, poor fit]"
18,Cc1nn(-c2ccc(F)cc2)c(Oc2ccc(F)cc2F)c1CCC(=O)NCC1CC1,"inconclusive: 50.1 µM [inhibitor, partial curve, poor fit]"
19,Cc1ccc(C2Cn3nnc(C(=O)N4CCC(C(=O)NC(C)c5ccc(F)cc5)CC4)c3CO2)cc1 (stereo not drawn),"inconclusive: 50.1 µM [inhibitor, partial curve, poor fit]"

row,SMILES,Potency
1,Cc1nn(-c2cccc(Br)c2)c(C)c1[C@@H]1C=C[C@@H](NCc2cccc(C#N)c2)C1,"inconclusive: 50.1 µM [inhibitor, partial curve, poor fit]"
2,COc1ccc(-c2noc([C@@H]3CCCN3C(=O)Cc3ccc(F)cc3)n2)cc1OC,"inconclusive: 56.2 µM [inhibitor, partial curve, poor fit]"
3,O=C(c1c(F)cccc1F)N1C[C@@H](CO)[C@H](c2nc(C3CC3)no2)C1,"inconclusive: 100 µM [inhibitor, single point]"
4,OCc1ccc(CN2CC[C@@H](c3ccc4ccccc4c3)[C@H](O)C2)o1,"inconclusive: 89.1 µM [inhibitor, single point]"
5,COc1ccccc1CCC(=O)N1CCC[C@H]1c1nc(-c2ccc(OC)c(OC)c2)no1,"inconclusive: 50.1 µM [inhibitor, partial curve, poor fit]"
6,COc1ccccc1N1CCN(C(=O)CN2C(=O)NC(c3ccc(Cl)cc3)C3=C2COC3=O)CC1 (stereo not drawn),"inconclusive: 39.8 µM [inhibitor, partial curve, poor fit]"
7,COc1ccc(Cl)cc1C(=O)N1CCC(c2n[nH]c(=O)n2-c2ccc(C)cc2)CC1,inactive
8,CSc1cccc(NC(=O)c2ccc3c(c2)N(C)C2CCCCN2C3=O)c1 (stereo not drawn),active: 39.8 µM
9,O=C(Cc1ccc(F)cc1)NC1CCN(c2cc(C(F)(F)F)ncn2)CC1,"inconclusive: 79.4 µM [inhibitor, single point]"
10,O=C(NCCC1CCN(C(=O)Nc2cc(F)cc(F)c2)CC1)c1ccc(F)cc1,"inconclusive: 89.1 µM [inhibitor, single point]"
11,O=C(c1ccccc1)N1CCc2sc(C(=O)N3CCN(c4ccccn4)CC3)cc2C1,"inconclusive: 89.1 µM [inhibitor, single point]"
12,O=C(Nc1ccccc1)c1cnc2n1CCN(Cc1ccc3c(c1)CCO3)CC2,"inconclusive: 100 µM [inhibitor, partial curve]"
13,Cc1ccc(CN2CC[C@@H]3[C@H]2C(=O)NC[C@H](CCC(=O)N2CCN(C)CC2)N3C)cc1,inactive
14,O=C1c2cnc(-c3cc4ccccc4o3)nc2OCCN1CC1CC1,"inconclusive: 56.2 µM [inhibitor, partial curve, poor fit]"
15,O=C(Nc1ccc(Cl)nc1)c1ccn2cncc2c1,"inconclusive: 100 µM [inhibitor, partial curve]"
16,COc1ccccc1-c1ccc2c(n1)CN(Cc1ccccc1C)C(=O)CO2,"inconclusive: 126 µM [inhibitor, single point]"
17,CCOc1ccccc1C(=O)N1CC(=O)N(CCOc2ccccc2)CC(O)C1 (stereo not drawn),"inconclusive: 89.1 µM [inhibitor, single point]"
18,CCC(NS(=O)(=O)c1ccc(C(=O)NC2CC2)cc1)c1cnn(C)c1 (stereo not drawn),inactive
19,O=C(NC1CCN(CCn2nc3n(c2=O)CCCC3)C1)c1ccc(Cl)nc1 (stereo not drawn),inactive
